In a compilation of properties of binary mixtures (doi:10.1021/je300622r):
The densities may have been worked out from excess volumes.

Assay: xn = mol fraction of the nth substance listed
Conditions: 101 kPa

CCCC[n+]1ccn(C)c1.O=S(=O)([O-])O + O
mass density [kg/m3]
Conditions | x2 = 0.0083 | x2 = 0.095 | x2 = 0.2013 | x2 = 0.3903 | x2 = 0.5924 | x2 = 0.7934 | x2 = 0.8988
303.15 K | 1276 | 1274.3 | 1271.6 | 1263.9 | 1248.4 | – | 1157.5
313.15 K | 1269.9 | 1268 | 1265.2 | 1257.3 | 1241.9 | 1203.2 | 1150.4
323.15 K | 1263.9 | – | 1258.8 | 1251.1 | – | 1196.2 | 1143.3
333.15 K | 1258 | 1255.5 | 1252.7 | 1245 | 1229 | 1189.3 | 1136.2
343.15 K | – | 1249.7 | 1246.8 | 1238.9 | 1222.6 | 1182.4 | –

CCOS(=O)(=O)[O-].CC[n+]1ccn(C)c1 + O
Conditions | mass density [kg/m3]
283.15 K, x2 = 0.0023 | 1250.3
283.15 K, x2 = 0.1225 | 1247.8
283.15 K, x2 = 0.427 | 1237.9
283.15 K, x2 = 0.798 | 1192.9
293.15 K, x2 = 0.798 | 1185.7
303.15 K, x2 = 0.427 | 1223.8
303.15 K, x2 = 0.6124 | 1210.4
303.15 K, x2 = 0.798 | 1178.5
313.15 K, x2 = 0.427 | 1216.9
313.15 K, x2 = 0.6124 | 1203.3
313.15 K, x2 = 0.798 | 1171.2
323.15 K, x2 = 0.6124 | 1196.3
323.15 K, x2 = 0.8983 | 1118.6
333.15 K, x2 = 0.0023 | 1216.2
333.15 K, x2 = 0.6124 | 1189.4
333.15 K, x2 = 0.8983 | 1111.6
343.15 K, x2 = 0.6124 | 1182.4
343.15 K, x2 = 0.798 | 1149.4
343.15 K, x2 = 0.8983 | 1104.3

CC[n+]1ccn(C)c1.COS(=O)(=O)[O-] + O
mass density [kg/m3]
Conditions | 278.15 K | 288.15 K | 298.15 K | 308.15 K | 318.15 K | 328.15 K | 338.15 K
x2 = 0.0023 | 1301.4 | – | – | 1280.4 | – | – | 1260.3
x2 = 0.0887 | 1299.2 | 1292.1 | – | 1278.3 | 1271.5 | 1264.8 | 1258.3
x2 = 0.2235 | 1294.9 | 1287.9 | 1280.9 | – | 1267.3 | 1260.6 | 1254.1
x2 = 0.4163 | 1285.1 | 1278 | 1271 | – | 1257.2 | 1250.5 | –
x2 = 0.6106 | 1265.8 | 1258.7 | 1251.7 | 1244.7 | 1237.8 | 1230.9 | –
x2 = 0.7999 | 1219.5 | 1212.5 | 1205.6 | 1198.6 | 1191.6 | 1184.5 | 1177.4
x2 = 0.8948 | 1164.8 | – | 1152.2 | – | 1139.1 | 1132.3 | 1125.4
